The record followed here is the RNAGym collection of RNA variant scans (doi:10.1073/pnas.2313332121).

Variants at the floor of the assay are shown more often than the library holds them. Some results are limits rather than exact numbers.

B1: TPR 5TU (parent)
chain: GGAUCUUCUCGAUCUAACAAAAAAGACAAAUCUGCCACAAAGCUUGAGAGCAUCUUCGGAUGCAGAGGCGGCAGCCUUCGGUGGCGCGAUAGCGCCAACGUUCUCAACUAUGACACGCAAAACGCGUGCUCCGUUGAAUGGAGUUUAUCAUG

The data set covers variants of B1. Kind of data set: polymerase ribozyme fitness, log enrichment relative to wild type (log ratio); higher = more active; in vitro selection for triplet polymerase activity. The gist of the method: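 A heterodimeric triplet polymerase ribozyme had each of its subunits mutagenized by PCR into a library, which was transcribed. One round of in vitro selection, done in triplicate, annealed each library with a biotinylated primer, its partner subunit and triplets, then incubated it frozen at −7 °C before gel excision of extended constructs, streptavidin-bead capture and RT-PCR. Fitness is the logarithm of genotype enrichment relative to wild-type enrichment, based on Illumina sequencing of inputs and outputs and inverse-variance-weighted replicate averages. A base-2 logarithm is used, and genotypes were kept only with ≥10 input reads and ≥1 read per output.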
Turning to C10G A49U A66G G84A C87U A98G, the “polymerase ribozyme fitness (log ratio)” value was no more than -4.2.

On to C10U C54A G88U A115G, for which the “polymerase ribozyme fitness (log ratio)” value was no more than -4.2.

With G11A A24G A41U C51A G59A G80A G84U U90A, the “polymerase ribozyme fitness (log ratio)” value was no more than -4.2.

For the variant C10U C14G A24C A52C U53A C76A C99G, the “polymerase ribozyme fitness (log ratio)” value was no more than -4.2.

In the case of C10G A29C C72A G88U, the “polymerase ribozyme fitness (log ratio)” value is no more than -4.2.

Regarding C10U A29U G92A C99A U145C, the “polymerase ribozyme fitness (log ratio)” value is no more than -4.2.

On to C10U A19G A28U U55A U56A A66U G74A G84U, for which the “polymerase ribozyme fitness (log ratio)” value was no more than -4.2.

C10U G46A C96G: the “polymerase ribozyme fitness (log ratio)” value is no more than -4.2.

Regarding C10U C32U A52U G74A G86A A89G A107C G140U U148C, the “polymerase ribozyme fitness (log ratio)” value is no more than -4.2.

As for C10U U15A A23U C32A C51U U55G U111G, the “polymerase ribozyme fitness (log ratio)” value is no more than -4.2.

For C10U C18G G50A A66G G88U A122U U139C, the “polymerase ribozyme fitness (log ratio)” value is no more than -4.2.

With C10G G81C C87A U127C U144A U148A, the “polymerase ribozyme fitness (log ratio)” value is no more than -4.2.

In the case of C10G C85G A121U U151G, the “polymerase ribozyme fitness (log ratio)” value was no more than -4.2.

With G11A A12G C38U A41U C69U G83U, the “polymerase ribozyme fitness (log ratio)” value was -3.51.

On to C10G A22G A52U U77G U148C C149G, for which the “polymerase ribozyme fitness (log ratio)” value is no more than -4.2.

Consider G11A U61A U77A, for which the “polymerase ribozyme fitness (log ratio)” value is no more than -4.2.

C10U G59A C85U: the “polymerase ribozyme fitness (log ratio)” value is no more than -4.2.

Turning to C10U A17G A52C C75U C99U U102C U127A U135A, the “polymerase ribozyme fitness (log ratio)” value is no more than -4.2.

With C10U A41U G70C G83U C108U U134A A142G, the “polymerase ribozyme fitness (log ratio)” value was no more than -4.2.

In the case of G11A U15G G42U G48U U139C, the “polymerase ribozyme fitness (log ratio)” value is no more than -4.2.

On to G11C A21U A40U G58C C75G A91G C118U, for which the “polymerase ribozyme fitness (log ratio)” value is no more than -4.2.

For the variant C10U A39U C79G G86C G92U A110G C132U G133U U139A, the “polymerase ribozyme fitness (log ratio)” value was no more than -4.2.

With C10U C85G, the “polymerase ribozyme fitness (log ratio)” value was -3.57.

For the variant G11A G50U U82C G86A C116A, the “polymerase ribozyme fitness (log ratio)” value was -3.47.

Consider C10U C103G C132U, for which the “polymerase ribozyme fitness (log ratio)” value was no more than -4.2.

As to C10U C14G C76U A106G A107G C108U, the “polymerase ribozyme fitness (log ratio)” value was no more than -4.2.

Turning to C10G U56G C57A G74C A91U C96A A106G, the “polymerase ribozyme fitness (log ratio)” value was no more than -4.2.

For the variant C10G C35A G84U U101G U148G, the “polymerase ribozyme fitness (log ratio)” value was no more than -4.2.

Take C10G A23U C36U G80U A98U C116G: the “polymerase ribozyme fitness (log ratio)” value is no more than -4.2.

Turning to C10U U78A C87G C116G G117A, the “polymerase ribozyme fitness (log ratio)” value was no more than -4.2.

Consider G11A A64G G88U U101G C103G U146G, for which the “polymerase ribozyme fitness (log ratio)” value was no more than -4.2.

Turning to C10G C43G G46U C76A, the “polymerase ribozyme fitness (log ratio)” value is no more than -4.2.

With C10U A19U A41C G42U U55A C96A U151C, the “polymerase ribozyme fitness (log ratio)” value is no more than -4.2.

Take C10U A12C C18G A20C A23C C76A C93G U139A: the “polymerase ribozyme fitness (log ratio)” value is no more than -4.2.

As for C10U G70U C87A C118U, the “polymerase ribozyme fitness (log ratio)” value was no more than -4.2.

As to C10G G11A G50A C79U C87G U101G, the “polymerase ribozyme fitness (log ratio)” value is no more than -4.2.

With G11A A39G C54G C87U C96G, the “polymerase ribozyme fitness (log ratio)” value was no more than -4.2.

For C10U C14G A28U G58C U61C G70C C76G C96U A138G G140U C149G, the “polymerase ribozyme fitness (log ratio)” value was no more than -4.2.

With C10G A28C C51A U61A C93U C99A, the “polymerase ribozyme fitness (log ratio)” value was no more than -4.2.

On to C10G G92C, for which the “polymerase ribozyme fitness (log ratio)” value is -3.61.

Take C10G G92U: the “polymerase ribozyme fitness (log ratio)” value is -3.24.

On to C10U U15A A40C U53A C87A U135C U148A, for which the “polymerase ribozyme fitness (log ratio)” value was no more than -4.2.

Take C10U C35G U45A C76G: the “polymerase ribozyme fitness (log ratio)” value was no more than -4.2.

Turning to G11A C75A G86U, the “polymerase ribozyme fitness (log ratio)” value is no more than -4.2.

Turning to C10U A20G C85A U102G U127G, the “polymerase ribozyme fitness (log ratio)” value is no more than -4.2.

Turning to C10U C87A, the “polymerase ribozyme fitness (log ratio)” value was no more than -4.2.

As to C10G A73G C87A A98U G140A U146G, the “polymerase ribozyme fitness (log ratio)” value is no more than -4.2.

For the variant C10G A49G C54A G67U G88A G92C G136C, the “polymerase ribozyme fitness (log ratio)” value is no more than -4.2.

For the variant C10G G88A U102G C116U, the “polymerase ribozyme fitness (log ratio)” value was no more than -4.2.

Turning to G11A U33G C38U U44A U55G G86C G117U G143A, the “polymerase ribozyme fitness (log ratio)” value was no more than -4.2.

For the variant C10G A28U C35U A91G C131A U145A U146G C149G, the “polymerase ribozyme fitness (log ratio)” value was no more than -4.2.

In the case of G11A G34C A47G C103G A121U, the “polymerase ribozyme fitness (log ratio)” value was no more than -4.2.

As to G11A A30G C118G, the “polymerase ribozyme fitness (log ratio)” value was no more than -4.2.

Turning to C10G C54U G58U U82A G94C G143U, the “polymerase ribozyme fitness (log ratio)” value was no more than -4.2.

For C10G C35U, the “polymerase ribozyme fitness (log ratio)” value is -3.4.

Consider C10G U61A G74U G81U C85G, for which the “polymerase ribozyme fitness (log ratio)” value was no more than -4.2.

As to C10G A60U C96U G124U A150C, the “polymerase ribozyme fitness (log ratio)” value is no more than -4.2.

On to G11A U31A A47G G62U C63G C87A U111G, for which the “polymerase ribozyme fitness (log ratio)” value was no more than -4.2.

On to C10G G34U C85A, for which the “polymerase ribozyme fitness (log ratio)” value is no more than -4.2.

Turning to C10G A28G U82G G94C C95A G140A, the “polymerase ribozyme fitness (log ratio)” value was no more than -4.2.

C10G C38U C87A C93G C105A: the “polymerase ribozyme fitness (log ratio)” value was no more than -4.2.

Turning to C10G A23C U31G C75U C87G C93A G133U G136U, the “polymerase ribozyme fitness (log ratio)” value was no more than -4.2.

On to C10G C38U A91U U104G C114U G133U, for which the “polymerase ribozyme fitness (log ratio)” value was no more than -4.2.

On to G11A G67A C79G C87A C114G A137G, for which the “polymerase ribozyme fitness (log ratio)” value was no more than -4.2.

C10G A52U C54U A97U C132U: the “polymerase ribozyme fitness (log ratio)” value was no more than -4.2.

Take C10U A107G: the “polymerase ribozyme fitness (log ratio)” value was no more than -4.2.

Consider C10G G46A U55A G65A A73G U134A, for which the “polymerase ribozyme fitness (log ratio)” value is no more than -4.2.

For the variant G11A C35A G86A, the “polymerase ribozyme fitness (log ratio)” value is no more than -4.2.

Take C10U C38G C85G A89G G128U C129U U135G U148G: the “polymerase ribozyme fitness (log ratio)” value was no more than -4.2.

With C10G A28U U31C C76A U82C G86A G128U, the “polymerase ribozyme fitness (log ratio)” value was no more than -4.2.

In the case of C10U A91U C96U A119G G143A, the “polymerase ribozyme fitness (log ratio)” value is no more than -4.2.

In the case of G11A C14G A19U C27A U31C C118G, the “polymerase ribozyme fitness (log ratio)” value was no more than -4.2.

With G11A C14G A66U C87A A106U G143C, the “polymerase ribozyme fitness (log ratio)” value was no more than -4.2.

With C10G A37U C95A C103G U109A A137U, the “polymerase ribozyme fitness (log ratio)” value is no more than -4.2.

On to C10G U15G A37C C87G A137U, for which the “polymerase ribozyme fitness (log ratio)” value is no more than -4.2.

C10U U45A G81U: the “polymerase ribozyme fitness (log ratio)” value is no more than -4.2.

As for C10U C18U A22U A30C C51G U53G A66C C75A C87U C99A A150G, the “polymerase ribozyme fitness (log ratio)” value is no more than -4.2.

In the case of C10U A39G A73U G83U A147G A150U, the “polymerase ribozyme fitness (log ratio)” value is no more than -4.2.

For the variant C10U U77G C87A G117U, the “polymerase ribozyme fitness (log ratio)” value is no more than -4.2.

As to C10G C35A G81A C149U, the “polymerase ribozyme fitness (log ratio)” value is no more than -4.2.

For G11A C14U C54U A89G C95A G141U, the “polymerase ribozyme fitness (log ratio)” value was no more than -4.2.

In the case of C10G G59A C79A C123A U135G, the “polymerase ribozyme fitness (log ratio)” value is no more than -4.2.

As for G11A A22U C43G A73U C93G U102G C105U A150C, the “polymerase ribozyme fitness (log ratio)” value is no more than -4.2.
